The values that follow come from publication PMC4336329 (PLoS ONE, 2015).

Out of some 310,000 compounds screened, about 14,000 (4.5%) showed an effect of 50% or more. Effects have a minus sign here. The list shows a part of the results.
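Also: peak tail current of the secondary pulse compared with the same well before compound.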

Sequence of human ether-à-go-go-related gene (hERG) potassium channel (Q12809 whole entry, looked up): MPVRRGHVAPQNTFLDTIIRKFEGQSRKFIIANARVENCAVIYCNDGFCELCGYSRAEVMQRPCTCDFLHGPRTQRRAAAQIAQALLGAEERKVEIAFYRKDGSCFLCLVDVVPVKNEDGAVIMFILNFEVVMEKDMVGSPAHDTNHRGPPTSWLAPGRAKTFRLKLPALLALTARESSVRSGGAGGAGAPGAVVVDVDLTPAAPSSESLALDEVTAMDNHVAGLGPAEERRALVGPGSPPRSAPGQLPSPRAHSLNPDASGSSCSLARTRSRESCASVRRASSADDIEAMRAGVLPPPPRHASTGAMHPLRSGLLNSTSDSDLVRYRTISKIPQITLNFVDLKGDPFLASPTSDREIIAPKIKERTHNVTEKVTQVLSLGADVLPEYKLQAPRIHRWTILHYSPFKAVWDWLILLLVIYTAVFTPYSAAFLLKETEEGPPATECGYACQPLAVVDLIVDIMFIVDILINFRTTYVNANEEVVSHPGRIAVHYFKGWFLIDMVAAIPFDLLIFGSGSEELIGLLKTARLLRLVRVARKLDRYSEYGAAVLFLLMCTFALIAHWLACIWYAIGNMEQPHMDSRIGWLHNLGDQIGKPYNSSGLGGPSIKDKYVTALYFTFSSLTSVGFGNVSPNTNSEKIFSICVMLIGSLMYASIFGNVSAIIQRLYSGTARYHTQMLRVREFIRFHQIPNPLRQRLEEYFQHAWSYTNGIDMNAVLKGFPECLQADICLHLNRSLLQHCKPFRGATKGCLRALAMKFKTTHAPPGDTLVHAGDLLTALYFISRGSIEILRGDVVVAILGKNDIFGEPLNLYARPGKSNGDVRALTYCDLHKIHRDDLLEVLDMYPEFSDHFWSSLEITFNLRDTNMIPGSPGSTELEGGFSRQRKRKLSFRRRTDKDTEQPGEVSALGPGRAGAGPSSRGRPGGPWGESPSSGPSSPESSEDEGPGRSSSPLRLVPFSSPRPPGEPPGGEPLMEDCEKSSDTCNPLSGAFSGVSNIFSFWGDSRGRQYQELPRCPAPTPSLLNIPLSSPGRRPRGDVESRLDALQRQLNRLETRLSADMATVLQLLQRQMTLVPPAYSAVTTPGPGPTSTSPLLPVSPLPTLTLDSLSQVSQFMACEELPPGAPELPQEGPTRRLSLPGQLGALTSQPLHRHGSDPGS

The assay concerns the target human ether-à-go-go-related gene (hERG) potassium channel (human, UniProt Q12809). Put plainly: primary screen, population patch clamp on CHO cells stably expressing hERG.
Regarding `NC(=O)c1nsc(C(=O)N(CC(=O)NC2CCCC2)c2ccc(F)c(Cl)c2)c1N`, the “hERG current change (%, negative = inhibition) at 10uM” value is on record as 7.4%.

Turning to `COc1ccccc1CCn1cc(C#N)c(=O)[nH]c1=O`, the “hERG current change (%, negative = inhibition) at 10uM” value amounted to 14.7%.

With `Brc1ccc(-c2nnc3n2C2(CCCC2)Cc2ccccc2-3)o1`, the “hERG current change (%, negative = inhibition) at 10uM” value is on record as -15%.

For `CC(C)(C)n1nnnc1C(c1cccs1)N1CCCc2ccccc21` (stereo not drawn), the “hERG current change (%, negative = inhibition) at 10uM” value is -15.5%.

Take `CCOc1ccc2oc(C(=O)N(C)CCc3ccc(OC)c(OC)c3)c(C)c2c1`: the “hERG current change (%, negative = inhibition) at 10uM” value is reported as -30.9%.

`CCCCN(C(=O)/C=C/c1ccco1)c1c(N)n(Cc2ccccc2)c(=O)[nH]c1=O`: the “hERG current change (%, negative = inhibition) at 10uM” value is on record as 5.48%.

As for `O=C(/C=C/c1ccccc1)NC(=S)NNC(=O)c1cccnc1`, the “hERG current change (%, negative = inhibition) at 10uM” value is 23.1%.

For the molecule `Cc1cc(S(=O)(=O)NCC(C)C)ccc1OCC(=O)NCc1ccco1`, the “hERG current change (%, negative = inhibition) at 10uM” value is -73.4%.

Regarding `Cn1c(O)c(C(=NCCN2CCCCC2)c2ccccc2Cl)c(=O)n(C)c1=O`, the “hERG current change (%, negative = inhibition) at 10uM” value was 1.78%.

For the molecule `O=C(c1ccc(COc2ccccc2Cl)o1)N1CCOCC1`, the “hERG current change (%, negative = inhibition) at 10uM” value was -7.89%.

Consider `CCN(c1ccccc1)S(=O)(=O)c1ccc(Cl)c(NC(=O)CN2C(=O)NC3(CCCC3)C2=O)c1`, for which the “hERG current change (%, negative = inhibition) at 10uM” value is given as -22%.

Regarding `Cc1ccc(-n2nc3c(c2NC(=O)C2CCCC2)CS(=O)(=O)C3)cc1`, the “hERG current change (%, negative = inhibition) at 10uM” value is reported as 9.25%.

`O=C(Nc1cccc(/C=C/c2ccccn2)c1)c1cc(Cl)ccn1`: the “hERG current change (%, negative = inhibition) at 10uM” value is reported as -1.01%.

Take `CCN(C(=O)COC(=O)c1ccc(Cl)nc1)C1CCS(=O)(=O)C1` (stereo not drawn): the “hERG current change (%, negative = inhibition) at 10uM” value was 16%.

Turning to `Cc1ccc(NC(=S)Nc2ccc(Cl)c(Cl)c2)c(OC(F)F)c1`, the “hERG current change (%, negative = inhibition) at 10uM” value is reported as 12.4%.

`CC12CN3CCN(C1)CC(C)(C3)C2=NN`: the “hERG current change (%, negative = inhibition) at 10uM” value stood at 15.6%.

Consider `COc1ccc(C2C(C(N)=O)=C(C)Nc3nc(-c4ccccc4)nn32)cc1OC` (stereo not drawn), for which the “hERG current change (%, negative = inhibition) at 10uM” value is given as 2.91%.

For the molecule `CC(=O)Nc1ccc(NC(=O)CSc2ncnc3c2cnn3Cc2ccccc2)cc1`, the “hERG current change (%, negative = inhibition) at 10uM” value is -2.36%.

As for `O=C(OCc1cccc(Cl)c1)c1cc([N+](=O)[O-])ccc1N1CCOCC1`, the “hERG current change (%, negative = inhibition) at 10uM” value is on record as -38.7%.

Consider `C=CCNC(=O)C1CC(=O)N(c2ccc(OCC(=O)Nc3ccccc3)cc2)C1` (stereo not drawn), for which the “hERG current change (%, negative = inhibition) at 10uM” value is recorded as -15.8%.

For the molecule `Cc1cc(S(=O)(=O)NCc2ccco2)c(C)cc1Cl`, the “hERG current change (%, negative = inhibition) at 10uM” value amounted to 14.1%.

As to `CC(CCC(=O)Nc1nncs1)C(=O)O` (stereo not drawn), the “hERG current change (%, negative = inhibition) at 10uM” value is on record as -6.61%.

Consider `CN(c1ccccc1)S(=O)(=O)c1ccc2c(c1)oc(=O)n2C`, for which the “hERG current change (%, negative = inhibition) at 10uM” value is 13.6%.

Take `O=C(COc1cccc2c1CCN(Cc1ccc(Cl)cc1)C2=O)N1CCOCC1`: the “hERG current change (%, negative = inhibition) at 10uM” value is reported as -60.2%.
